The list shows a part of the results. The full chains were built here from the parent and the listed change. Inactive controls read about 0.05.
B1: TEV protease; numbered along this chain (parent)
chain: MGESLFKGPRDYNPISSSICHLTNESDGHTTSLYGIGFGPFIITNKHLFRRNNGTLVVQSLHGVFKVKDTTTLQQHLVDGRDMIIIRMPKDFPPFPQKLKFREPQREERICLVTTNFQTKSMSSMVSDTSCTFPSGDGIFWKHWIQTKDGQCGSPLVSTRDGFIVGIHSASNFTNTNNYFTSVPKNFMELLTNQEAQQWVSGWRLNADSVLWGGHKVFMVKPEEPFQPVKEATQL

Variants of: B1
Test: raw area under fraction-flipped curve 0-4 h after induction (AUC4h, not background-subtracted), DNA-recorder readout of cleavage of the substrate (dimensionless); higher = more cleavage of the substrate by the protease variant
Settings: temperature: 34 °C; time window: 0-4 h after rhamnose induction
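Note: Bxb1 expression induced with 0.2% (w/v) L-rhamnose at OD600 near 0.5, cultures sampled hourly, flipped fraction per protease–substrate barcode pair counted by paired-end Illumina sequencing.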

| Variant | area with substrate ENLYDQS | area with substrate ENLYEQS | area with substrate ENLYGQS | area with substrate ENLYHQS | area with substrate ENLYIQS | area with substrate ENLYMQS | area with substrate ENLYNQS | area with substrate ENLYQQS | area with substrate ENLYRQS | area with substrate ENLYSQS | area with substrate ENLYTQS | area with substrate ENLYVQS | area with substrate ENLYWQS | area with substrate ENLYKQS | area with substrate ENLYPQS | area with substrate ENLYLQS | area with substrate ENLYYQS |
| --- | --- | --- | --- | --- | --- | --- | --- | --- | --- | --- | --- | --- | --- | --- | --- | --- | --- |
| MGESLFKGPRDYNPISSSICHLTNESDGHTTSLYGIGFGPFIITNKHLFRRNNGTLVVQSLHGVFKVKDTTTLQQHLVDGRDMIIIRMPKDFPPFPQKLKFRVPQREERICLVTTNFQTKSMSSMVSDTSCTFPSGDGIFWKHWIQTKDGQCGSPLVSTRDGFIVGIHSASNFTNTNNYFTSVPKNFMELLTNQEAQQWVSGWRLNADSVLWGGHKVFMVKPEEPFQPVKEATQL [E103V] | 0.0518 | 0.0628 | 0.058 | 0.0748 | 0.104 | 0.09 | 0.0741 | 0.0614 | 0.0759 | 0.0821 | 0.0721 | 0.112 | 0.0761 |  |  |  |  |
| MGESLFKGPRDYNPISSSICHLTNESDGHTTSLYGIGFGPFIITNKHLFRRNNGTLVVQSLHGVFKVKDTTTLQQHLVDGRDMIIIRMPKDFPPFPQKLKFREPQREERICLVTTNFQTKSMSSMVSDTSCTFPSGDGIFWKHWIQTKDGQCGSPLVSTRDGFIVGIHSASNFTNTNNYFTSLPKNFMELLTNQEAQQWVSGWRLNADSVLWGGHKVFMVKPEEPFQPVKEATQL [V183L] | 0.056 | 0.0658 | 0.0639 |  | 0.116 |  | 0.0674 |  |  |  | 0.0815 |  |  | 0.0596 | 0.0501 |  |  |
| MGESLFKGPRDYNPISSSICHLTNESDGHTTSLYGIGFGPFIITNKHLFRRNNGTLVVQSLHGVFKVKDTTTLQQHLVDGRDMIIIRMPKDFPPFPQKLKFREPQREERICLVTTNFQTKSMSSMVSDTSCTFPSGDGIFWKHWIQTKDGQCGSPLVATRDGFIVGIHSASNFTNTNNYFTSVPKNFMELLTNQEAQQWVSGWRLNADSVLWGGHKVFMVKPEEPFQPVKEATQL [S158A] | 0.053 | 0.062 | 0.0594 | 0.0559 | 0.108 | 0.126 | 0.0762 |  | 0.0636 |  | 0.0877 |  | 0.0817 |  | 0.0765 |  |  |
| MGESLFKGPRDYNPISSSICHLTNESDGHTTSLYGIGFGPFIITNKHLFRRNNGTLVVQSLHGVFKVKDTTTLQQHLVDGRDMIIIRMPKDFPPFPQKLKFREPQREERICLVTTNFQTKSMSSMVSDTSCTFPSGDGIFWRHWIQTKDGQCGSPLVSTRDGFIVGIHSASNFTNTNNYFTSVPKNFMELLTNQEAQQWVSGWRLNADSVLWGGHKVFMVKPEEPFQPVKEATQL [K142R] | 0.0595 | 0.056 | 0.0624 | 0.0584 | 0.101 | 0.0695 |  |  |  | 0.0684 |  | 0.0902 |  |  | 0.0571 | 0.0844 |  |
| MGESLFKGPRDYNPISSSICHLTNESDGHTTSLYGIGFGPFIITNKHLFRRNNGTLVVQSLHGVFKVKDTTTLQQHLVDGMDMIIIRMPKDFPPFPQKLKFREPQREERICLVTTNFQTKSMSSMVSDTSCTFPSGDGIFWKHWIQTKDGQCGSPLVSTRDGFIVGIHSASNFTNTNNYFTSVPKNFMELLTNQEAQQWVSGWRLNADSVLWGGHKVFMVKPEEPFQPVKEATQL [R81M] | 0.0554 | 0.0642 | 0.0633 | 0.0718 | 0.0997 | 0.0695 | 0.0581 |  | 0.0691 | 0.064 | 0.0811 | 0.103 | 0.0704 | 0.076 | 0.0622 | 0.0969 | 0.0551 |
| MGESLFKGPRDYNPISSSICHLTNESDGHTTSLYGIGFGPFIITNKHLFRRNNGTLVVQSLHGVFKVKDTTTLQQHLVDGRDMIIIRMPKDFPPFPQKLKFREPQREERICLVTTNFQTKSASSMVSDTSCTFPSGDGIFWKHWIQTKDGQCGSPLVSTRDGFIVGIHSASNFTNTNNYFTSVPKNFMELLTNQEAQQWVSGWRLNADSVLWGGHKVFMVKPEEPFQPVKEATQL [M122A] | 0.0609 |  | 0.0537 | 0.0467 | 0.13 | 0.0865 | 0.0665 |  | 0.0508 | 0.0843 | 0.0842 | 0.128 | 0.0764 | 0.0494 | 0.076 |  | 0.0641 |
| MGESLFKGPRDYNPISSSICHLTNESDGHTTSLYGIGFGPFIITNKHLFRRNNGTLVVQSLHGVFKVKDTTTLQQHLVDGRDMIIIRMPKDFPPFPQKLKFREPQREERICLVTTNRQTKSMSSMVSDTSCTFPSGDGIFWKHWIQTKDGQCGSPLVSTRDGFIVGIHSASNFTNTNNYFTSVPKNFMELLTNQEAQQWVSGWRLNADSVLWGGHKVFMVKPEEPFQPVKEATQL [F117R] | 0.0936 |  |  | 0.0738 | 0.126 | 0.0829 | 0.0685 |  | 0.0688 | 0.0605 |  | 0.108 | 0.0924 | 0.0709 |  |  |  |
| MGESLFKGPRDYNPISSSICHLTNESDGHTTSLYGIGFGPFIITNKHLFRRNNGTLVVQSLHGVFKVKDTTTLQQHLVDGRDMIIIRMPKDFPPFPQKLKFREPQREERICLVTTNFQTKSMSSMVSDTSCTFPSGDGIFWKHWIQTKDGQCGSPLVSTRDGFIVGIHSASNFTNTNNYFTSVPKNFMELLTNQEAQQWVSGWRLNPDSVLWGGHKVFMVKPEEPFQPVKEATQL [A207P] | 0.0604 |  |  | 0.0729 | 0.0625 |  |  | 0.0643 | 0.0601 | 0.0749 |  |  | 0.0694 |  |  |  |  |
| MGESLFKGPRDYNPISSSICHLTNESDGHTTSLYGIGFGPFIITNKHLFRRNNGTLVVQSLHGVFKVKDTTTLQQHLVDGRDMIIIRMPKDFPPFPQKLKFREPQREERICLVTTNFQTKSMSSMVSDTSCTFPSGDGIFWKHWIQTKDPQCGSPLVSTRDGFIVGIHSASNFTNTNNYFTSVPKNFMELLTNQEAQQWVSGWRLNADSVLWGGHKVFMVKPEEPFQPVKEATQL [G150P] | 0.0593 | 0.0642 | 0.0609 | 0.0588 | 0.0661 | 0.0619 | 0.0624 | 0.0666 | 0.0499 | 0.0551 | 0.0571 | 0.0445 | 0.0621 | 0.0667 | 0.0621 | 0.0593 |  |

Source: the supplement of paper PMC12217912
